The chains are these.
B1: Caulobacter ParB omega fusion; a variant is named by its letters at X, in order, B8GW30 (parent)
chain: MESVVVGEPGMSEGRRGLGRGLSALLGEVDAAPAQAPGEQLGGSREAPIEILQRNPDQPRRTFREEDLEDLSNSIREKGVLQPILVRPSPDTAGEYQIVAGERAWRAAQRAGLKTVPIMVRELDDLAVLEIGIIENVQRADLNVLEEALSYKVLMEKFERTQENIAQTIGKSXSHVANXMRLLXLPDEVQSYLVSGELTAXHARAIAAAADPVALAKQIIEGGLSVRETEALARKAPNLSAGKSKGGRPPRVKDTDTQALESDLSSVLGLDVSIDHRGSTGTLTITYATLEQLDDLCNRLTRGI

In all, about 81,000 sequences were measured (“one-hybrid fitness for binding parS DNA”: median about -0.17, highest 2% from about 0.51 on). The list shows a part of the results.

The variants in the experiment derive from B1. Put plainly: one-hybrid fitness for binding parS DNA (scaled: cognate 1, non-cognate 0); higher = stronger binding. The conditions noted are these: with parS DNA site. The essentials: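 In E. coli USO, a HIS3 reporter with its site placed 19 bp from the promoter was used to select Caulobacter ParB variants randomised at four specificity codons. Growth lasted 48 hours at 37°C on histidine-free M9 containing 0.1 mM IPTG and 5 mM 3-AT. Fitness was taken as the log change in variant-to-wild-type read ratio from Illumina sequencing of pre- and post-selection plasmids, rescaled between the non-cognate and cognate sites.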
Turning to WCLT, the “one-hybrid fitness for binding parS DNA” value is no more than 0.2. Take WRSR: the “one-hybrid fitness for binding parS DNA” value is no more than 0.2. As to MECW, the “one-hybrid fitness for binding parS DNA” value is no more than 0.2. Regarding WKHC, the “one-hybrid fitness for binding parS DNA” value was no more than 0.2. The result for TCSI reads no more than 0.2; that for AEGK, no more than 0.2. In the case of QIQY it was no more than 0.2; in that of QQVS, no more than 0.2; in that of RSVF, no more than 0.2.

In the case of EERR, the “one-hybrid fitness for binding parS DNA” value is no more than 0.2. The result for IFKR reads no more than 0.2; that for CSMV, no more than 0.2.

For the variant RTEN, the “one-hybrid fitness for binding parS DNA” value is 0.349. As for ANDC, the “one-hybrid fitness for binding parS DNA” value is no more than 0.2. On to SEPG, for which the “one-hybrid fitness for binding parS DNA” value was no more than 0.2.

Take SDTS: the “one-hybrid fitness for binding parS DNA” value was no more than 0.2. Take MEMT: the “one-hybrid fitness for binding parS DNA” value is no more than 0.2. WRNT: the “one-hybrid fitness for binding parS DNA” value is no more than 0.2.

In the case of QDHG, the “one-hybrid fitness for binding parS DNA” value is no more than 0.2. In the case of CHSD it was no more than 0.2; in that of VWSG, no more than 0.2; in that of FALC, no more than 0.2. The result for WPTG reads no more than 0.2; that for QAFC, no more than 0.2; that for PHTY, no more than 0.2.

Consider RDEG, for which the “one-hybrid fitness for binding parS DNA” value was no more than 0.2. TEFW: the “one-hybrid fitness for binding parS DNA” value is no more than 0.2. The result for IGCS reads no more than 0.2; that for YVQR, no more than 0.2; that for HGCL, no more than 0.2.

As for WLSE, the “one-hybrid fitness for binding parS DNA” value is no more than 0.2. On to VRTG, for which the “one-hybrid fitness for binding parS DNA” value is no more than 0.2. GWGP: the “one-hybrid fitness for binding parS DNA” value is 0.281. In the case of WHLV it was no more than 0.2; in that of LLEM, no more than 0.2. As to DFAL, the “one-hybrid fitness for binding parS DNA” value was no more than 0.2. GYPP: the “one-hybrid fitness for binding parS DNA” value is no more than 0.2.

Regarding CPRI, the “one-hybrid fitness for binding parS DNA” value was no more than 0.2. The result for VRAM reads no more than 0.2; that for TAFE, no more than 0.2; that for AFDN, no more than 0.2. Regarding DMNT, the “one-hybrid fitness for binding parS DNA” value is no more than 0.2. Take TQRV: the “one-hybrid fitness for binding parS DNA” value is no more than 0.2. The result for RGNT reads 0.609; that for VKKG, no more than 0.2; that for LCLF, no more than 0.2. As to DTYR, the “one-hybrid fitness for binding parS DNA” value was no more than 0.2. For ASSI, the “one-hybrid fitness for binding parS DNA” value was no more than 0.2.

Turning to MPRW, the “one-hybrid fitness for binding parS DNA” value is no more than 0.2. As to HQSS, the “one-hybrid fitness for binding parS DNA” value was no more than 0.2. With IVPL, the “one-hybrid fitness for binding parS DNA” value is no more than 0.2. The result for YLTQ reads no more than 0.2; that for IGLD, no more than 0.2. In the case of HGSA it was no more than 0.2; in that of VRYR, no more than 0.2; in that of EFRC, no more than 0.2. The result for DHCG reads no more than 0.2; that for KVSL, no more than 0.2. ALES: the “one-hybrid fitness for binding parS DNA” value was no more than 0.2.

Regarding WWAD, the “one-hybrid fitness for binding parS DNA” value came to 0.24. The result for GNSK reads no more than 0.2; that for GASS, no more than 0.2. On to TSDY, for which the “one-hybrid fitness for binding parS DNA” value is no more than 0.2.

On to NMVM, for which the “one-hybrid fitness for binding parS DNA” value was no more than 0.2. For LYHR, the “one-hybrid fitness for binding parS DNA” value was no more than 0.2. Take IVST: the “one-hybrid fitness for binding parS DNA” value was no more than 0.2. The result for DITE reads no more than 0.2; that for PSIA, no more than 0.2. For the variant CKGF, the “one-hybrid fitness for binding parS DNA” value was no more than 0.2.

For RQWW, the “one-hybrid fitness for binding parS DNA” value was no more than 0.2.

Take LRQM: the “one-hybrid fitness for binding parS DNA” value was no more than 0.2. In the case of GTNY it was no more than 0.2. The result for RNST reads 0.746; that for QYKY, no more than 0.2. Turning to NHVR, the “one-hybrid fitness for binding parS DNA” value is no more than 0.2. In the case of RNHP it was no more than 0.2; in that of QWCS, no more than 0.2. As to HRCG, the “one-hybrid fitness for binding parS DNA” value amounted to 0.246. Take QFYK: the “one-hybrid fitness for binding parS DNA” value is no more than 0.2. In the case of MSPN it was no more than 0.2. With RRPH, the “one-hybrid fitness for binding parS DNA” value is no more than 0.2. In the case of KECG it was no more than 0.2; in that of QCIR, no more than 0.2. Turning to MDPV, the “one-hybrid fitness for binding parS DNA” value was no more than 0.2. The result for SART reads no more than 0.2; that for CTDC, no more than 0.2. As to VKKI, the “one-hybrid fitness for binding parS DNA” value was no more than 0.2. The result for TYVT reads no more than 0.2. Turning to MNFI, the “one-hybrid fitness for binding parS DNA” value was no more than 0.2.

On to GYLM, for which the “one-hybrid fitness for binding parS DNA” value was no more than 0.2. With STMF, the “one-hybrid fitness for binding parS DNA” value was no more than 0.2. The result for LWRF reads no more than 0.2. As to MWES, the “one-hybrid fitness for binding parS DNA” value is no more than 0.2. As for CLLS, the “one-hybrid fitness for binding parS DNA” value was no more than 0.2. The result for CKQA reads no more than 0.2. Turning to KSSS, the “one-hybrid fitness for binding parS DNA” value is no more than 0.2. For the variant MQGS, the “one-hybrid fitness for binding parS DNA” value is no more than 0.2.

On to KSYM, for which the “one-hybrid fitness for binding parS DNA” value was no more than 0.2. The result for FIPR reads no more than 0.2. As for TSGN, the “one-hybrid fitness for binding parS DNA” value is no more than 0.2.

For the variant KQMC, the “one-hybrid fitness for binding parS DNA” value was no more than 0.2.

On to CLWP, for which the “one-hybrid fitness for binding parS DNA” value was no more than 0.2. In the case of LCCT, the “one-hybrid fitness for binding parS DNA” value was no more than 0.2. Consider CSVD, for which the “one-hybrid fitness for binding parS DNA” value was no more than 0.2. The result for RTNH reads no more than 0.2; that for QYNK, no more than 0.2. In the case of CSEF, the “one-hybrid fitness for binding parS DNA” value is no more than 0.2. In the case of ASHA it was no more than 0.2; in that of SISW, no more than 0.2. On to PHLF, for which the “one-hybrid fitness for binding parS DNA” value was no more than 0.2. On to QKYT, for which the “one-hybrid fitness for binding parS DNA” value was no more than 0.2. Turning to LLNL, the “one-hybrid fitness for binding parS DNA” value was no more than 0.2. The result for KLWF reads no more than 0.2.

Regarding PVMS, the “one-hybrid fitness for binding parS DNA” value was no more than 0.2. As for ACGC, the “one-hybrid fitness for binding parS DNA” value is no more than 0.2. With MACS, the “one-hybrid fitness for binding parS DNA” value is no more than 0.2. IKGG: the “one-hybrid fitness for binding parS DNA” value is no more than 0.2. The result for RWWY reads no more than 0.2; that for ARQM, no more than 0.2. The result for SNKV reads no more than 0.2; that for RQDN, 0.431; that for MCSR, no more than 0.2. In the case of RHVQ it was no more than 0.2.

With QDQK, the “one-hybrid fitness for binding parS DNA” value is no more than 0.2. In the case of KYLY it was no more than 0.2; in that of EDAL, no more than 0.2. With TAYG, the “one-hybrid fitness for binding parS DNA” value is no more than 0.2. The result for SAFI reads no more than 0.2; that for AVHV, no more than 0.2; that for HKNQ, no more than 0.2. The result for INEG reads no more than 0.2; that for WSSS, no more than 0.2; that for WLPR, no more than 0.2. The result for FKGS reads no more than 0.2. Regarding IYTG, the “one-hybrid fitness for binding parS DNA” value is no more than 0.2. In the case of RTLG it was 1.02. In the case of KDRV, the “one-hybrid fitness for binding parS DNA” value is no more than 0.2. For PYAG, the “one-hybrid fitness for binding parS DNA” value was no more than 0.2. In the case of TKKV it was no more than 0.2; in that of MDRH, no more than 0.2.

KRKF: the “one-hybrid fitness for binding parS DNA” value is no more than 0.2. For the variant LTWI, the “one-hybrid fitness for binding parS DNA” value is no more than 0.2. As for QVNC, the “one-hybrid fitness for binding parS DNA” value was no more than 0.2.

PSPG: the “one-hybrid fitness for binding parS DNA” value was no more than 0.2. In the case of DHAG it was no more than 0.2.

Regarding MNAT, the “one-hybrid fitness for binding parS DNA” value is no more than 0.2.

For the variant HPRL, the “one-hybrid fitness for binding parS DNA” value is no more than 0.2. With RNKQ, the “one-hybrid fitness for binding parS DNA” value was no more than 0.2.

With PCKL, the “one-hybrid fitness for binding parS DNA” value was no more than 0.2. With QASY, the “one-hybrid fitness for binding parS DNA” value is no more than 0.2. In the case of QHAR it was no more than 0.2; in that of LMSD, no more than 0.2; in that of PQCC, no more than 0.2.

(Values after a collection of fitness landscapes (doi:10.1016/j.celrep.2020.107928).)
